# According to PubChem BioAssay AID1477 (National Center for Advancing Translational Sciences (NCATS), 2009):
# Screen size: about 230,000 compounds; fewer than 10 were called active. The inconclusive results got no clear call from the source; some entries with a clear call stand among them for comparison. The call rests on the fitted dose curve; in most records, active means well fitted curve in the direction sought with a large enough effect; inconclusive means small, poorly fitted or top-dose-only effect, or effect the other way, or another doubt; inactive means no such curve, though single readings can be large or run the other way. No potency is given beside an inconclusive call; the fits are too rough.
# Molecular target: Runt-related transcription factor 1 (Homo sapiens) + Core-binding factor subunit beta (Homo sapiens) (UniProt Q01196+Q13951)
# UniProt Q01196, sequence (Q01196 whole entry, looked up): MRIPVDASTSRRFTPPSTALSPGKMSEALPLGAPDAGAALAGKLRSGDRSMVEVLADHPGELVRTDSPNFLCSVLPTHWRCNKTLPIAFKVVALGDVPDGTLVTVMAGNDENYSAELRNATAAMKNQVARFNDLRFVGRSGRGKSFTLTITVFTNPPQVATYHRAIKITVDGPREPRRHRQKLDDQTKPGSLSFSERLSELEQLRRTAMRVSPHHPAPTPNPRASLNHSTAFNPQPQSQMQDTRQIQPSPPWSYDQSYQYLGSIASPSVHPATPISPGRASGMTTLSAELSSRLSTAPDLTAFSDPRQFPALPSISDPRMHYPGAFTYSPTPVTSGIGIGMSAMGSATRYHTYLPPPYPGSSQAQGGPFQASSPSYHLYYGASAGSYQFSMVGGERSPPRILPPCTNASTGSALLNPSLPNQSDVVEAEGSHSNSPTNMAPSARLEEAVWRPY
# UniProt Q01196, sequence (Q13951 whole entry, looked up): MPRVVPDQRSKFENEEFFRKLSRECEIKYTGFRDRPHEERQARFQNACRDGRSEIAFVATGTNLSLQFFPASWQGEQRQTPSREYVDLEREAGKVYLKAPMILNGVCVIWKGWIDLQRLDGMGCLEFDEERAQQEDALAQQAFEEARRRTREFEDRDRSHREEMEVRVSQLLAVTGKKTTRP
# Assay: qHTS Assay for Compounds Blocking the Interaction Between CBF-beta and RUNX1 for the Treatment of Acute Myeloid Leukemia; on activity, negative = inhibition: % of control where 0% means no effect
# Details: AlphaScreen CBFb-His/RUNX1-biotin binding, biochemical; activity, negative = inhibition: at 59.8 µM (top of the series) unless noted
# How it was run: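 Room-temperature protein-protein interaction test with 30 nM each of His-tagged CBF-beta and biotinylated RUNX1, 15 min with compound, then 90 min with nickel plus streptavidin beads. Signal read in AlphaScreen mode.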
SMILES,Potency,"activity, negative = inhibition"
CCN(CC)S(=O)(=O)c1cccc(C(=O)Nc2cccnc2)c1,"inconclusive [activator, partial curve]",
O=C(NCc1ccc(F)cc1)c1c2c(nc3ccccc13)CCC2,"inconclusive [inhibitor, single point]",
O=C1c2ccccc2-c2n[nH]c(=O)c3ccc(N4CCCCC4)c1c23,"inconclusive [inhibitor, single point]",
Clc1ccccc1CSc1ncn(-c2ccccc2)n1,"inconclusive [activator, single point]",
COc1ccc(S(=O)(=O)NCc2ccc3c(c2)cc(C)n3C)cc1,"inconclusive [inhibitor, single point]",
CC1CCCN(C(=O)c2ccc3c(=O)n(Cc4ccc5c(c4)OCO5)c(=S)[nH]c3c2)C1 (stereo not given),inactive,
C#CCOC(=O)NC(/C=C/CCCC)c1ccccc1 (stereo not given),inactive,
COc1ccccc1Sc1nc(-c2ccccn2)ncc1OC,"inconclusive [inhibitor, partial curve]",
Cc1ccccc1Nc1nc(Nc2ccccc2C)nc(SC2=NCCS2)n1,"inconclusive [inhibitor, partial curve]",
COC(=O)CCCC1=CC2=C(c3ccccc3)C(=O)C(C)(OC(=O)C3CCCC3)C(=O)C2=CN1c1ccc(OC)cc1 (stereo not given),"inconclusive [inhibitor, single point]",
Cc1cccc(NC(=O)c2ccc(N(C)C3CCCCC3)c([N+](=O)[O-])c2)n1,"inconclusive [inhibitor, partial curve]",
COc1ccc(N=Nc2cc(C)c(O)c(CN3CCCCC3)c2)cc1,"inconclusive [inhibitor, partial curve]",
CCCCN1C(=O)C(=O)NC[C@@H]1C(C)O (stereo not given in full),"inconclusive [activator, full curve, poor fit]",
CN=C(Nc1cc(Cl)ccc1Cl)SC1CC(=O)N(c2ccc(C(=O)OC)cc2)C1=O (stereo not given),inactive,
CN(C)c1cc2c(c(N(C)C)c1)C(=O)c1ccccc1C2=O,inactive,
COc1ccc(-n2c(-c3ccc(F)cc3)cnc2SCC(=O)NCc2ccco2)cc1,"inconclusive [inhibitor, single point]",
COc1ccccc1NC(=O)c1cnc(Nc2ccccc2OC)c2ccccc12,"inconclusive [activator, partial curve]",
Cc1cccc(NC(=S)NNC(=O)c2ccc3c(c2)OCO3)c1,"inconclusive [inhibitor, single point]",
CS(=O)(=O)c1ccc2c(c1)SC1=NC(=O)/C(=C/c3ccco3)C(=N)N12,"inconclusive [inhibitor, single point]",
COC(=O)C1=CN(CC2CCCO2)C=C(C(=O)OC)C1c1ccccc1C(F)(F)F (stereo not given),"inconclusive [activator, single point]",
O=C(Nc1ccc2c(c1)OCO2)C1CC(=O)N(c2ccc3c(c2)OCCO3)C1 (stereo not given),"inconclusive [activator, single point]",
CCOc1cc(C)cc2oc(=O)cc(-c3ccccc3)c12,inactive,
O=[N+]([O-])c1cc(/C=N\Nc2nc(-c3ccccc3)cs2)ccc1O,"inconclusive [inhibitor, partial curve]",
O=C(O)[C@@H]1CN[C@@H](C(=O)O)C1,"inconclusive [inhibitor, single point]",

SMILES,Potency,"activity, negative = inhibition"
NC1=Nc2cccc3cccc1c23,inactive,
CN(C)c1oc(-c2ccc(OCc3ccccc3)cc2)nc1C#N,"inconclusive [inhibitor, single point]",
Nc1ccc(N2CCOCC2)c(Cl)c1,inactive,
CCCCC(=O)NC(=S)NNC(=O)c1ccc(Cl)cc1Cl,inactive,
O=C(CC1(c2ccc(Cl)cc2)C2CC3CC(C2)CC1C3)NCCO (stereo not given),inactive,
Nc1cccc(O)c1,"inconclusive [inhibitor, partial curve]",
COc1ccc(N=Cc2c(O)n(-c3cccc(C)n3)c(=O)c3ccccc23)c(OC)c1,inactive,
COc1ccc(OC)c2sc(NC(=O)CCSc3ccccc3)nc12,inactive,
CC(C)OP(=O)(c1ccc(N(C)C)cc1)C(O)c1cccnc1 (stereo not given),inactive,
Cc1ccsc1/C=N/NC(=O)CO,inactive,
COC(=O)CCC(=O)OC1(C)C(=O)C=C2C=C(C3CC3)N(Cc3ccc4c(c3)OCO4)C=C2C1=O (stereo not given),"inconclusive [inhibitor, partial curve]",
c1ccc(C2=Nc3c(ccc4ccccc34)C(c3ccncc3)=NN2)cc1,"inconclusive [inhibitor, single point]",
O=C(N/N=C/c1cc(Br)c(Br)o1)C(O)c1ccccc1 (stereo not given),"inconclusive [inhibitor, single point]",
COc1ccc(CCn2c(N)c(C(=O)NCc3ccco3)c3nc4ccccc4nc32)cc1,"inconclusive [activator, partial curve]",
O=C(/C=C/c1ccco1)NCC1OCCc2ccccc21 (stereo not given),"inconclusive [inhibitor, single point]",
Cc1cc(Cl)ccc1OCCCC(=O)NC1CCN(C)CC1,"inconclusive [inhibitor, single point]",
C=C1c2cccc(C(F)(F)F)c2O[C@H](C(=O)OCC)[C@@H]1CCC(C)C,"inconclusive [activator, partial curve, poor fit]",
N#C/C(=C/c1ccc(-c2cc(C(=O)O)cc(C(=O)O)c2)o1)c1nc2ccccc2s1,"inconclusive [inhibitor, partial curve]",
FC(F)(F)c1cc(-c2cccs2)nc(-n2cc(Cl)cn2)n1,inactive,
c1ccc2nc(N3CCCC3)c(N3CCCC3)nc2c1,"inconclusive [activator, single point]",
CN(C)c1ncccc1-c1nc2ccccc2s1,"inconclusive [activator, single point]",
CC(=O)c1ccc(N2CCC(c3cc(-c4ccc(Cl)cc4)n[nH]3)CC2)c([N+](=O)[O-])c1,"inconclusive [inhibitor, single point]",
COc1ccc2[nH]c3c(c2c1)CCN=C3C,"inconclusive [inhibitor, partial curve]",
CCN1C=C(Cc2ccc(OC)cc2)C2=C(C1)C(c1ccc(OC)cc1)C(C#N)=C(N)O2 (stereo not given),inactive,

SMILES,Potency,"activity, negative = inhibition"
O=C(c1ccc(CN2CCc3ccccc3C2)cc1)N1CCN(c2ccccc2)CC1,"inconclusive [activator, single point]",
CC(=O)N1CCC(=NNc2ncc(C(F)(F)F)cc2Cl)CC1,inactive,
CCCc1nc2sc3c(SCC(=O)NCc4ccco4)ncnc3c2c2c1CCC2,"inconclusive [inhibitor, single point]",
O=C(Oc1c(CN2CCOCC2)cc(Cl)c2cccnc12)c1ccccc1,"inconclusive [inhibitor, partial curve]",
CN(C)c1ccc(C2N(c3ccc(Cl)cc3)C(=O)C3CCCN32)cc1 (stereo not given),inactive,
Cc1c(C(=O)NNC(=S)Nc2cccc(Cl)c2)nnn1-c1ccccc1,inactive,
COc1ccc(/C(N)=N/OC(=O)CN(C)S(=O)(=O)c2ccc(C)cc2)cc1,"inconclusive [activator, partial curve]",
O=C(COC(=O)c1cc(-c2ccccn2)nc2ccccc12)Nc1ncc(C(F)(F)F)cc1Cl,"inconclusive [activator, full curve]",
CCOCCCNC(=S)N1CCCN(c2nc3cc(C)cc(C)c3cc2C#N)CC1,"inconclusive [activator, single point]",
CCOC(=O)c1c(C)[nH]c(N=Nc2ccccc2C)c1C,"inconclusive [inhibitor, single point]",
S=c1[nH]nc(CSCCOc2ccc(Cl)cc2Cl)o1,inactive,
CCCCCc1cc(=O)oc2c(C(CCN3CCN(c4ccccc4)CC3)c3ccc(N(C)C)cc3)c(OC)cc(OC)c12 (stereo not given),"inconclusive [inhibitor, partial curve]",
C=C1CCN(C(CC(C)C)C(=O)NCc2ccc(Cl)cc2)S(=O)(=O)c2ccccc21 (stereo not given),inactive,
CCOc1ccc(C(=O)N/N=C(\c2ccccc2)c2ccccn2)cc1,"inconclusive [inhibitor, single point]",
O=[N+]([O-])c1cc([N+](=O)[O-])c2n[nH]c(-c3ccccc3)c2c1,"inconclusive [activator, single point]",
CCOC(=O)OCC1OC(c2ccccc2)C=CC1Oc1ccc2oc(=O)cc(C)c2c1 (stereo not given),,inactive: 11.5% [at 13.1 µM]
N#CC1=C(N)NC(=S)C(C(N)=O)C1c1ccc([N+](=O)[O-])cc1 (stereo not given),"inconclusive [inhibitor, single point]",
COC(=O)[C@@]1(Cc2ccc(OC)cc2)[C@H]2c3cc(C(=O)N4CCCC4)n(CCc4c[nH]c5ccc(OC)cc45)c3C[C@H]2CN1C(=O)c1ccccc1,"inconclusive [inhibitor, single point]",
C(=N\Nc1nc2ccccc2[nH]1)/c1ccccn1,"inconclusive [inhibitor, partial curve]",
Cc1cccc(NC(=S)NNC(=O)c2ccco2)c1,inactive,
Nc1ccc(Nc2ccccc2)cc1,"inconclusive [inhibitor, partial curve]",
CCc1ccc(OCC(=O)N/N=C\c2ccco2)c([N+](=O)[O-])c1,"inconclusive [inhibitor, single point]",
